Measured values as given in PubChem BioAssay AID686978 (National Center for Advancing Translational Sciences (NCATS), 2013).
The campaign covered roughly 420,000 compounds. About 64,000 (15%) were called active. Inconclusive means that the source gave no clear call. Such entries were picked first, then a sample of the others. The call rests on the fitted dose curve; in most records, active means well fitted inhibition curve with a large enough effect; inconclusive means small, poorly fitted or top-dose-only effect; inactive means flat fitted curve, though single readings scatter. Potencies of inconclusive entries are left out as doubtful fits.
On the % scale 0 is the no-effect control and ±100 the full control effect; potency means the concentration at half of the fitted maximal effect; tags describe the fitted curve by direction and shape.

Experiment: qHTS for Inhibitors of human tyrosyl-DNA phosphodiesterase 1 (TDP1): qHTS in cells in absence of CPT; further: nearly all actives have a fitted effect of over 55% in size
Conditions: DT40 Tdp1-/- hTDP1 cells, no CPT, ATP luminescence, 48 h; activity change, negative = growth inhibition: at 46.2 µM (top of the series)
In short: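 No-CPT arm: Tdp1-/-;hTDP1 DT40 cells (400/well) plus compounds, incubated ≥48 hr at 37 °C. Readout CellTiter-Glo luminescence.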
For `CC(C)CNC(=O)C1Nc2ccc(OC(F)(F)F)cc2C2C=CCC12` (stereo not given), the Potency was active: 13 µM.
For `CCOCCc1nnc(NC(=O)C(=O)c2cc(C)n(-c3ccc(C)c(C)c3)c2C)s1`, the Potency was inconclusive [inhibitor, single point].
In the case of `Cc1ccc(C)c(N2CCN(c3nc4ccc(C)cc4nc3-n3nc(C)cc3C)CC2)c1`, the Potency is reported as “inactive”.
In the case of `O=C(Nc1ccc(Cl)cc1)C1CC2CCCC(C1)C2=O` (stereo not given), the Potency is reported as “inactive”.
In the case of `O=C(Nc1ccccc1C(=O)OCc1cc(=O)n2nc(C3CC3)sc2n1)c1ccc(Cl)cc1`, the Potency is reported as “inactive”.
In the case of `O=C(C[C@H]1C[C@H]2c3cc(NC(=O)CC4CC4)ccc3O[C@H]2[C@H](CO)O1)NCc1ccccc1F`, the activity change, negative = growth inhibition is reported as inconclusive: -38.3% [inhibitor].
For `CCCCn1nc2cc(C(=O)NCc3cc(C(F)(F)F)cc(C(F)(F)F)c3)ccc2c1OCC`, the Potency was inconclusive [inhibitor, single point].
In the case of `CC(SCc1ccccc1)C(=O)Nc1ccccc1Br` (stereo not given), the Potency is reported as inconclusive [inhibitor, single point].
For `O=C(Nc1ccc(Cl)cc1)c1nc[nH]c1C(=O)NCCN(CCNC(=O)c1[nH]cnc1C(=O)Nc1ccc(Cl)cc1)CCNC(=O)c1[nH]cnc1C(=O)Nc1ccc(Cl)cc1`, the Potency was inconclusive [inhibitor, single point].
With `Cc1cc(F)ccc1S(=O)(=O)N(C(=O)c1ccncc1)c1ccc(OC(=O)c2ccncc2)cc1` the Potency was active: 14.6 µM.
In the case of `CC(C)(C)c1nn(-c2ccccc2)c2[nH]c(=O)c(C=O)cc12`, the Potency is reported as inconclusive [inhibitor, single point].
With `Cc1ccc(NC(=O)CN2CCC(Cc3ccccc3)CC2)cc1S(=O)(=O)N(C)C` the Potency was inconclusive [inhibitor, single point].
With `CCc1nc2ccccc2n1CC(=O)N1CCN(Cc2ccccc2)CC1` the Potency was inconclusive [inhibitor, single point].
In the case of `CCCCNc1nc2c(S(=O)(=O)c3ccc(C)cc3)nnn2c2ccsc12`, the Potency is reported as “inactive”.
In the case of `CC(=O)Nc1cccc(-c2ccnc3c2CC(C(=O)NCCc2ccccc2)O3)c1` (stereo not given), the Potency is reported as active: 2.91 µM.
With `Cc1ccc(S(=O)(=O)N2CC(O)CC2C(=O)OCC(=O)Nc2ccc([N+](=O)[O-])cc2C(F)(F)F)cc1C` (stereo not given) the Potency was “inactive”.
In the case of `CCc1nn(CC(=O)N2CC(C)CC(C)C2)c(=O)c2cccn12` (stereo not given), the Potency is reported as “inactive”.
With `CCOc1ccc2nc(NS(=O)(=O)c3ccc(NC(C)=O)cc3)sc2c1` the Potency was “inactive”.
For `O=C(CCN=C1NS(=O)(=O)c2ccccc21)Nc1ccc(Cl)cc1F`, the Potency was “inactive”.
With `CC(Oc1ccc(F)cc1)C(=O)Oc1ccc(N(C)S(=O)(=O)c2ccccc2)cc1` (stereo not given) the Potency was “inactive”.
